Here are results for 8 variants from the supplement of paper PMC12217912.

First the molecules themselves.
B1: TEV protease; numbered along this chain (parent)
chain: MGESLFKGPRDYNPISSSICHLTNESDGHTTSLYGIGFGPFIITNKHLFRRNNGTLVVQSLHGVFKVKDTTTLQQHLVDGRDMIIIRMPKDFPPFPQKLKFREPQREERICLVTTNFQTKSMSSMVSDTSCTFPSGDGIFWKHWIQTKDGQCGSPLVSTRDGFIVGIHSASNFTNTNNYFTSVPKNFMELLTNQEAQQWVSGWRLNADSVLWGGHKVFMVKPEEPFQPVKEATQL

Some of the results follow. The full chains were built here from the parent and the listed change. Inactive controls read about 0.05.

The variants in this test derive from B1. Kind of test: raw area under fraction-flipped curve 0-4 h after induction (AUC4h, not background-subtracted), DNA-recorder readout of cleavage of the substrate (dimensionless); higher = more cleavage of the substrate by the protease variant. Particulars: temperature: 34 °C; time window: 0-4 h after rhamnose induction. On the procedure:
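In vivo DNA recorder in E. coli TOP10(DE3) ΔrhaA at 34 °C. Each TEVp single-site mutant (parent TEVp 0) is paired with a single-site variant of the 7-mer TEVs (canonical ENLYFQ|S). The substrate sits between flexible linkers in a Bxb1-sfGFP-TEVs-SsrA fusion, so cleavage stabilises Bxb1 and speeds flipping of a recombination array, read by NGS. The value is the raw area under the fraction-flipped curve over 0-4 h after rhamnose induction (AUC4h), with ≥20 reads per time point. It is not background-subtracted; inactive controls average about 0.047.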
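Note: Bxb1 expression induced with 0.2% (w/v) L-rhamnose at OD600 near 0.5, cultures sampled hourly, flipped fraction per protease–substrate barcode pair counted by paired-end Illumina sequencing.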

For the variant MGESLFKGPRDYNPISSSICHLTNESDGHTTSLYGIGFGPFIITNKHLFRRNNGTLVVQSLHGVFKVKDTTTLQQHLVDGRDMIIIRMPKDFPPFPQKLKFREPQREERICLVTTNFQTKSMSSMVSDTSCTFPSGDGIFWKHWIQTKDGQCGSPLVSTRDGFIVGIHSASNFTNTNNYFTSVPKNFMELLTNQEAQQWVSGWCLNADSVLWGGHKVFMVKPEEPFQPVKEATQL [R204C], the “area with substrate ENLYFAS” value stood at 0.0497, the “area with substrate ENLYFCS” value came out at 0.0662, the “area with substrate ENLYFES” value amounted to 0.0732 and the “area with substrate ENLYFFS” value amounted to 0.068. The “area with substrate ENLYFGS” value was found to be 0.0577, the “area with substrate ENLYFIS” value was determined as 0.0532, the “area with substrate ENLYFKS” value was 0.144 and the “area with substrate ENLYFLS” value stood at 0.06. For the same variant, the “area with substrate ENLYFMS” value was found to be 0.0524, the “area with substrate ENLYFPS” value was 0.0541, the “area with substrate ENLYFRS” value amounted to 0.0548 and the “area with substrate ENLYFSS” value is 0.0664. For the same variant, the “area with substrate ENLYFTS” value was determined as 0.0659, the “area with substrate ENLYFVS” value was 0.0644, the “area with substrate ENLYFWS” value was found to be 0.0594 and the “area with substrate ENLYFYS” value was 0.0506.
MGESLFKGPRDYNPISSSICHLTNESDGHTTSLYGIGFGPFIITNKHLFRRNNGTLVVQSLHGVFKVKDTTTLQQHLVDGRDMIIIRMPKDFPPFPQKLKFREPQREERICLVTTNFQTKSMSSMVSDTSCTFPSGDGIFWKHWIQTKDGQCGSPLVSTRDGFIVGIHSASNFTNTNNYFTSVPKNFMELLTNQEAQQCVSGWRLNADSVLWGGHKVFMVKPEEPFQPVKEATQL [W199C]: the “area with substrate ENLYFAS” value is 0.0667, the “area with substrate ENLYFCS” value stood at 0.0564, the “area with substrate ENLYFES” value is 0.053 and the “area with substrate ENLYFFS” value was determined as 0.0465. For the same variant, the “area with substrate ENLYFGS” value was determined as 0.0638, the “area with substrate ENLYFHS” value was found to be 0.0592, the “area with substrate ENLYFIS” value worked out at 0.0555 and the “area with substrate ENLYFLS” value turned out to be 0.0526. Further, the “area with substrate ENLYFMS” value worked out at 0.0623, the “area with substrate ENLYFPS” value amounted to 0.064, the “area with substrate ENLYFRS” value turned out to be 0.0699 and the “area with substrate ENLYFSS” value worked out at 0.0694. For the same variant, the “area with substrate ENLYFTS” value came out at 0.0548, the “area with substrate ENLYFWS” value came to 0.0564 and the “area with substrate ENLYFYS” value was found to be 0.0506.
In the case of MGESLFKGPRDYNPISSSICHLTNESDGHTTSLYGIGFGPFIITNKHLFRRNNGTLVVQSLHGVFKVKDTTTLQQHLVDGRDMIIIRMPKDFPPFPQKLKFREPQREERICLVTTNFQTKSMSSMVSDTSCTFPSGDGIFWKHWIQTKDGQCGSPLVSTRDGFIVGIHSASNFTNTNNYFTSVPKNFMELLTNQEAQQRVSGWRLNADSVLWGGHKVFMVKPEEPFQPVKEATQL [W199R], the “area with substrate ENLYFAS” value came out at 0.0625, the “area with substrate ENLYFCS” value was found to be 0.066, the “area with substrate ENLYFES” value stood at 0.066 and the “area with substrate ENLYFFS” value was determined as 0.0727. For the same variant, the “area with substrate ENLYFGS” value turned out to be 0.0805, the “area with substrate ENLYFIS” value was determined as 0.0651, the “area with substrate ENLYFKS” value is 0.0609 and the “area with substrate ENLYFMS” value worked out at 0.0596. Besides, the “area with substrate ENLYFNS” value worked out at 0.109, the “area with substrate ENLYFPS” value stood at 0.0602, the “area with substrate ENLYFRS” value worked out at 0.06 and the “area with substrate ENLYFSS” value was 0.066. Besides, the “area with substrate ENLYFWS” value stood at 0.0598 and the “area with substrate ENLYFYS” value was found to be 0.0478.
With MGESLFKGPRDYNPISSSICHLTNESDGHTTSLYGIGFGPFIITNKHLFRRNNGTLVVQSLHGVFKVKDTTTLQQHLVDGRDMIIIRMPKDFPPFPQKLKFREPQREERICLVTTNFQTKSMSSMVSDTSCTFPSGDGIFWKHWIQTKDGQCGSPLVSTRDGFIVGIHSASNFTNTNNYFTSVPKNFMELLTNQEAQWWVSGWRLNADSVLWGGHKVFMVKPEEPFQPVKEATQL [Q198W], the “area with substrate ENLYFAS” value worked out at 0.055, the “area with substrate ENLYFCS” value was determined as 0.0566, the “area with substrate ENLYFDS” value amounted to 0.0524 and the “area with substrate ENLYFES” value turned out to be 0.0503. Also, the “area with substrate ENLYFFS” value worked out at 0.0762, the “area with substrate ENLYFHS” value was 0.0585, the “area with substrate ENLYFIS” value turned out to be 0.0472 and the “area with substrate ENLYFKS” value came out at 0.0733. Further, the “area with substrate ENLYFMS” value is 0.064, the “area with substrate ENLYFNS” value was found to be 0.0633, the “area with substrate ENLYFPS” value was found to be 0.0641 and the “area with substrate ENLYFRS” value stood at 0.059. Moreover, the “area with substrate ENLYFSS” value stood at 0.0429, the “area with substrate ENLYFTS” value is 0.0665, the “area with substrate ENLYFWS” value was 0.0521 and the “area with substrate ENLYFYS” value stood at 0.0608.
For the variant MGESLFKGPRDYNPISSSICHLTNESDGHTTSLYGIGFGPFIITNKHLFRRNNGTLVVQSLHGVFKVKDTTTLQQHLVDGRDMIIIRMPKDFPPFPQKLKFREPQREERICLVTTNFQTKSMSSMVSDTSCTFPSGDGIFWKHWIQTKDGQCGSPLVSTRDGFIVGIHSASNFTNTNNYFTSVPKNFMELLTNQEAQEWVSGWRLNADSVLWGGHKVFMVKPEEPFQPVKEATQL [Q198E], the “area with substrate ENLYFAS” value was 0.0596, the “area with substrate ENLYFCS” value is 0.0628, the “area with substrate ENLYFDS” value was 0.0428 and the “area with substrate ENLYFES” value stood at 0.06. The “area with substrate ENLYFFS” value amounted to 0.073, the “area with substrate ENLYFIS” value stood at 0.0592, the “area with substrate ENLYFKS” value came out at 0.0597 and the “area with substrate ENLYFLS” value turned out to be 0.0414. In addition, the “area with substrate ENLYFMS” value worked out at 0.0664, the “area with substrate ENLYFNS” value came to 0.0685, the “area with substrate ENLYFPS” value was 0.053 and the “area with substrate ENLYFRS” value was 0.0666. The “area with substrate ENLYFSS” value was determined as 0.0551, the “area with substrate ENLYFTS” value came to 0.0514, the “area with substrate ENLYFWS” value worked out at 0.0492 and the “area with substrate ENLYFYS” value worked out at 0.0644.
For MGESLFKGPRDYNPISSSICHLTNESDGHTTSLYGIGFGPFIITNKHLFRRNNGTLVVQSLHGVFKVKDTTTLQQHLVDGRDMIIIRMPKDFPPFPQKLKFREPQREERICLVTTNFQTKSMSSMVSDTSCTFPSGDGIFWKHWIQTKDGQCGSPLVSTRDGFIVGIHSASNFTNTNNYFTSVPKNFMELLTNQEAQDWVSGWRLNADSVLWGGHKVFMVKPEEPFQPVKEATQL [Q198D], the “area with substrate ENLYFAS” value was 0.0615, the “area with substrate ENLYFCS” value worked out at 0.0577, the “area with substrate ENLYFDS” value turned out to be 0.0482 and the “area with substrate ENLYFHS” value is 0.0531. Besides, the “area with substrate ENLYFIS” value was 0.0629, the “area with substrate ENLYFKS” value worked out at 0.072, the “area with substrate ENLYFMS” value worked out at 0.0743 and the “area with substrate ENLYFRS” value turned out to be 0.0652. Further, the “area with substrate ENLYFSS” value was 0.0629, the “area with substrate ENLYFTS” value worked out at 0.0591, the “area with substrate ENLYFVS” value turned out to be 0.0562 and the “area with substrate ENLYFWS” value came out at 0.0569. The “area with substrate ENLYFYS” value is 0.0678.
On to MGESLFKGPRDYNPISSSICHLTNESDGHTTSLYGIGFGPFIITNKHLFRRNNGTLVVQSLHGVFKVKDTTTLQQHLVDGRDMIIIRMPKDFPPFPQKLKFREPQREERICLVTTNFQTKSMSSMVSDTSCTFPSGDGIFWKHWIQTKDGQCGSPLVSTRDGFIVGIHSASNFTNTNNYFTSVPKNFMELLTNQEAQCWVSGWRLNADSVLWGGHKVFMVKPEEPFQPVKEATQL [Q198C], for which the “area with substrate ENLYFAS” value was 0.0606, the “area with substrate ENLYFCS” value worked out at 0.0547, the “area with substrate ENLYFDS” value is 0.064 and the “area with substrate ENLYFES” value was found to be 0.0731. In addition, the “area with substrate ENLYFFS” value was determined as 0.0692, the “area with substrate ENLYFGS” value worked out at 0.0635, the “area with substrate ENLYFHS” value was 0.0515 and the “area with substrate ENLYFIS” value was 0.0513. The “area with substrate ENLYFKS” value was 0.0606, the “area with substrate ENLYFLS” value amounted to 0.0601, the “area with substrate ENLYFMS” value was 0.0594 and the “area with substrate ENLYFNS” value is 0.0566. Moreover, the “area with substrate ENLYFPS” value is 0.0634, the “area with substrate ENLYFRS” value amounted to 0.0522, the “area with substrate ENLYFTS” value is 0.0553 and the “area with substrate ENLYFVS” value was determined as 0.0616. Further, the “area with substrate ENLYFWS” value was 0.0554 and the “area with substrate ENLYFYS” value was 0.0547.
For the variant MGESLFKGPRDYNPISSSICHLTNESDGHTTSLYGIGFGPFIITNKHLFRRNNGTLVVQSLHGVFKVKDTTTLQQHLVDGRDMIIIRMPKDFPPFPQKLKFREPQREERICLVTTNFQTKSMSSMVSDTSCTFPSGDGIFWKHWIQTKDGQCGSPLVSTRDGFIVGIHSASNFTNTNNYFTSVPKNFMELLTNQEAQRWVSGWRLNADSVLWGGHKVFMVKPEEPFQPVKEATQL [Q198R], the “area with substrate ENLYFAS” value came out at 0.07, the “area with substrate ENLYFES” value is 0.0566, the “area with substrate ENLYFFS” value was 0.0576 and the “area with substrate ENLYFHS” value is 0.0569. The “area with substrate ENLYFIS” value stood at 0.0619, the “area with substrate ENLYFKS” value was determined as 0.0629, the “area with substrate ENLYFLS” value was 0.0558 and the “area with substrate ENLYFMS” value worked out at 0.0631. The “area with substrate ENLYFPS” value stood at 0.0567, the “area with substrate ENLYFRS” value was 0.0645, the “area with substrate ENLYFSS” value was determined as 0.0625 and the “area with substrate ENLYFTS” value was 0.0511. The “area with substrate ENLYFWS” value worked out at 0.0587 and the “area with substrate ENLYFYS” value was 0.0684.
